Assay results: PubChem BioAssay AID1346428 (National Center for Advancing Translational Sciences (NCATS), 2018)
In all, about 48,000 compounds went through this assay and about 1,200 (2.5%) were called active. Inconclusive results (about 2%) are left out.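 The calls were made as follows: active = activation of at least 60% and not above a set upper limit (about 1 call in 100 departs from these limits); inconclusive = activation of 40% to 60%, or above that upper limit; inactive = activation under 40%.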 The list shows a part of the results.

The compounds below were run against Probable G-protein coupled receptor 32 (Homo sapiens) (UniProt O75388) (assay: qHTS for Agonists of Human Resolvin D1 Receptor DRV1). Settings: CHO-K1 GPR32 beta-arrestin PathHunter luminescence, 90 min; at 76.9 µM; stronger effect = higher value; zero percent set by DMSO-only wells.
Chain of UniProt O75388 (O75388 whole entry, looked up): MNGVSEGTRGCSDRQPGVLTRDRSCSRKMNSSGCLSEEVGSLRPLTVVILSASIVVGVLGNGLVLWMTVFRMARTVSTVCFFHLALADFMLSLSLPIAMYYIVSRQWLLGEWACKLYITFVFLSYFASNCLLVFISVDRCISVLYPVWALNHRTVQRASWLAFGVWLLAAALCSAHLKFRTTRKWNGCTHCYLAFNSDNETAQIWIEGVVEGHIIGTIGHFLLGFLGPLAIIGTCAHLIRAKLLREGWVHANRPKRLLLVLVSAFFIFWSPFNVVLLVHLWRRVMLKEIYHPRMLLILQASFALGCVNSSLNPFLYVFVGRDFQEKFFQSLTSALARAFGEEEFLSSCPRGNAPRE
In short: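 PathHunter beta-arrestin recruitment in CHO-K1 cells stably expressing ProLink-tagged GPR32. Cells were exposed to compound for 90 min at 37 C, then chemiluminescence was read after 1 h detection at ambient temperature; DMSO served as basal control.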
Also: 0% is about no effect.

| Structure (SMILES) | activation |
| --- | --- |
| COc1cc(C(CC(=O)Nc2ccc(Br)cn2)N2Cc3ccccc3C2=O)cc(OC)c1OC (configuration not stated) | inactive: 18.1% |
| Cc1c(C(=O)Nc2cccc(F)c2)oc2c1-c1nn(Cc3c(F)cccc3Cl)cc1CC2 | inactive: -19.9% |
| Cc1ccc2c(c1)N(C(=O)CCC(=O)Nc1ccc(F)cc1F)CC(C)O2 (configuration not stated) | inactive: -24.2% |
| Cc1c(C(=O)Nc2cccc(C(F)(F)F)c2)oc2ccc(S(=O)(=O)N3CCC4(CC3)OCCO4)cc12 | inactive: 5.73% |
| CCN[C@H]1CN(CCCOC)S(=O)(=O)c2sc(S(N)(=O)=O)cc21 | inactive: -8.19% |
| COc1ccc(NC(=O)CSc2c3c(nc4ccccc24)CCC3)cc1Cl | inactive: 0.832% |
| CC(C)(C)C(=O)Nc1nnc2n1CCS2 | inactive: 42% |
| Cc1nn(S(=O)(=O)c2ccc(F)cc2)c(C)c1S(=O)(=O)N1CCCCC1 | inactive: -7.28% |
| CC(C)(C)c1ccc(C(=O)N2CCC(c3noc(-c4ccc(S(=O)(=O)N5CCCC5)cc4)n3)CC2)cc1 | inactive: -1.38% |
| Cc1ccccc1CNC(=O)CCc1cn(Cc2ccccc2C)c2ccccc12 | inactive: -27.9% |
| CCOc1ccc(NC(=O)c2ccc3c(c2)nnn3C2CCCC2)cc1 | inactive: 6.48% |
| CCN(CC)S(=O)(=O)c1ccc(NC(=O)c2ccc3c(=O)n4c(nc3c2)CCCCC4)cc1 | inactive: 36.7% |
| CCOc1ccccc1N(C)C(=O)c1cc(S(=O)(=O)NCCc2ccc(Cl)cc2)ccc1F | inactive: -18.5% |
| CCc1ccccc1NC(=O)CSc1nc(C)c(C(=O)Nc2ccccc2)c(-c2ccc(Cl)cc2)c1C#N | inactive: -24.1% |
| O=C(Nc1ccc(-c2nc3ccccc3s2)c(O)c1)c1ccc(Br)cc1 | inactive: 14.5% |
| CCOC(=O)c1c(C)[nH]c(C)c1S(=O)(=O)N1CCC(C(=O)NCc2cccc(C)c2)CC1 | inactive: -1.54% |
| Cc1ccc(NC(=O)C2CCN(S(=O)(=O)c3cccc4nonc34)CC2)c(Cl)c1 | inactive: 15.7% |
| Cc1cc(=O)c2c(O)c3c(O)cc(=O)c4c3c3c(cc(O)c1c23)C(C)(C)C=4O | inactive: 11.6% |
| CCOC(=O)C1=C(CS(=O)(=O)c2ccc(C(C)(C)C)cc2)NC(=O)NC1c1cccc(OC)c1 (configuration not stated) | inactive: 15.9% |
| Cc1cccc(NC(=O)CSc2nnc3[nH]c(=O)cc(C)n23)c1C | inactive: 4.46% |
| COc1ccc(-c2cc3c(=O)n(CC(=O)Nc4ccc(Br)c(C)c4)ccn3n2)cc1OC | inactive: -6.83% |

| Structure (SMILES) | activation |
| --- | --- |
| COc1ccc(N2CCN(C(=O)c3cnc(SC)nc3C)CC2)cc1 | inactive: 13.5% |
| O=C(CCn1c(=O)c2cccn2c2cccnc21)Nc1ccccc1Br | inactive: -8.99% |
| O=C(CSCc1ccc(F)cc1)N1CCc2c([nH]c3ccccc23)C1c1ccc(F)cc1 (configuration not stated) | inactive: -41% |
| Cc1cc(S(=O)(=O)Nc2cc3c(cc2NCc2ccccc2)n(C)c(=O)n3C)ccc1F | inactive: 27% |
| CCOC(=O)c1cc(-c2ccc(OC)cc2)n(CCC(=O)NCc2ccccc2OC)c1C | inactive: -26.4% |
| CCOc1ccc(NC(=O)CSc2ncn[nH]2)cc1 | inactive: -10.3% |
| Cc1ccsc1CN(Cc1ccco1)C(=O)c1ccc(Cl)cc1 | inactive: 1.88% |
| Cc1ccc(C)c(N2CCN(S(=O)(=O)c3ccc(-c4cc(C(F)(F)F)on4)s3)CC2)c1 | inactive: 6.09% |
| COc1cc(OC)c(N(C)C(=O)c2cn(C)c(=O)c3cc(OC)c(OC)cc23)cc1Cl | inactive: 0.869% |
| O=C(Nc1nc2c(F)cc(F)cc2s1)c1ccc2c(c1)OCCO2 | inactive: 4.56% |
| O=C(CN1C(=O)COc2ccc(S(=O)(=O)N3CCOCC3)cc21)Nc1ccc(F)c(Cl)c1 | inactive: -19.6% |
| O=C(Nc1nc2ccc(F)cc2s1)c1nc(SCc2ccccc2F)ncc1Cl | inactive: -18.4% |
| Cc1c(Cl)cccc1NC(=O)C1CCCN(C(=O)c2cnn(-c3ccccc3)c2-n2cccc2)C1 (configuration not stated) | inactive: 2.99% |
| CC(C)c1c(C(=O)Nc2ccccc2)c(-c2ccccc2)c(-c2ccc(F)cc2)n1CC[C@@H](O)C[C@@H](O)CC(=O)O | inactive: -2.27% |
| O=C(NCCc1ccc(Cl)cc1)C(=O)NCC(c1ccc2c(c1)OCO2)N1CCOCC1 (configuration not stated) | inactive: -18.9% |
| Cc1cc(C)c(S(=O)(=O)NCCc2sc(-c3cccnc3)nc2C)c(C)c1 | active: 68.7% |
| O=C(Nc1cc(C(F)(F)F)ccc1Cl)c1cc(-c2cccs2)nc2ccccc12 | inactive: 9.94% |
| Cn1c(=O)c2cc(C(=O)N3CCN(c4cccc(C(F)(F)F)c4)CC3)sc2c2ccccc21 | inactive: 2.51% |
| Cc1cc(S(=O)(=O)Nc2cc3c(cc2Cl)n(C)c(=O)c(=O)n3C)ccc1F | inactive: -1.07% |
| Cc1cc(Cl)ccc1OCc1nc(-c2ccc(-n3cccc3)cc2)no1 | inactive: -9.47% |
| OC(Cn1cncn1)(Cn1cncn1)c1ccc(F)cc1F | inactive: -7.24% |

| Structure (SMILES) | activation |
| --- | --- |
| CCCNC(=O)CCc1nnc2ccc(N3CCN(c4cccc(OC)c4)CC3)nn12 | inactive: -5.13% |
| CCCCN(C)CCNC(=O)c1c2c(nc3ccccc13)C(=O)N(C1CCCCC1)C2 | inactive: -10.9% |
| CCCCOC(=O)c1ccc(NC(=O)c2cc3c(=O)n4cccc(C)c4nc3s2)cc1 | inactive: 6.16% |
| Cc1c(C(=O)NCC(c2ccc(Cl)cc2)N2CCOCC2)oc2ccccc12 (configuration not stated) | inactive: -25% |
| CCOc1ccc(N2CC(c3nc4ccccc4n3CCCOc3ccccc3)CC2=O)cc1 (configuration not stated) | inactive: -14.4% |
| CC(C)(C)OC(=O)N1CCC(c2c(C(=O)NCCN3CCc4ccccc4C3)cnn2-c2ccc(F)cc2F)CC1 | inactive: -41.8% |
| Cc1ccc(CN2CCC(CNC(=O)Nc3ccc(Cl)cc3)C2)cc1 (configuration not stated) | inactive: -7.97% |
| CCC(=O)N1CCc2cc(Br)cc(S(=O)(=O)CCC(=O)NCCc3cccc(C)c3)c21 | inactive: -19.4% |
| Cc1ccc(NC(=O)CCn2c(=O)c3cccn3c3ccccc32)cc1C | inactive: -32% |
| Cc1ccc(-n2c(=O)c3cccnc3n2CC(=O)Nc2ccc(Br)cc2)cc1C | inactive: -3.38% |
| CC(Oc1ccc(F)cc1)C(=O)N1CCC(c2nc3ccccc3s2)CC1 (configuration not stated) | active: 67.2% |
| Cc1cc(C)cc(NC(=O)C(Cc2ccccc2)NS(=O)(=O)c2ccc3c(c2)c(=O)n(C)c(=O)n3C)c1 (configuration not stated) | inactive: 3.11% |
| Cn1ncc2c(N3CCN(c4cccc(Cl)c4)CC3)ncnc21 | inactive: 2.45% |
| CCOC(=O)N1CCc2c(sc(NCc3sccc3C)c2C(=O)Nc2ccc(OC)cc2OC)C1 | active: 117% |
| COc1ccc(C)cc1NC(=O)CCS(=O)(=O)c1cc2c3c(c1)CCN3C(=O)CC2 | inactive: -5.47% |
| COc1ccccc1N1CCN(C(=O)c2nc(SC)ncc2Cl)CC1 | inactive: -51.6% |
| CCOc1ccc(Oc2nc(NCC(C)C)nc(N3CCOCC3)n2)nn1 | inactive: -12.1% |
| COc1ccc(/C=C/C(=O)Nc2ccc3nc4c(c(Nc5ccccc5OC)c3c2)CCCC4)cc1 | inactive: -22.7% |
| O=C(c1ccc2c(c1)N(Cc1cccc(F)c1)C(=O)c1ccccc1S2)N1CCOCC1 | inactive: -35.6% |
| Cc1ccc(S(=O)(=O)c2nnn3c2nc(N2CCN(c4ccccc4F)CC2)c2cc(Cl)ccc23)cc1C | inactive: -9.42% |
| Cc1ccc(S(=O)(=O)c2nnn3c2nc(N2CCCC2)c2sccc23)cc1C | inactive: -2.92% |

| Structure (SMILES) | activation |
| --- | --- |
| CC(=O)N1c2c(cc(Br)cc2S(=O)(=O)N2CCN(c3cc(C)ccc3C)CC2)CC1C (configuration not stated) | inactive: -3.39% |
| Cc1ccccc1CN1C(=O)c2ccccc2S(=O)c2ccc(C(=O)NC3CCC(C)CC3)cc21 (configuration not stated) | inactive: -19.5% |
| CCc1ccc(NC(=O)c2sc3nc(C)c(Cl)c(C)c3c2NC(=O)c2ccccc2OC)cc1 | inactive: -0.804% |
| CC1=C(C#N)C(NC(=O)c2ccccc2Cl)(C(F)(F)F)C(=O)N1 (configuration not stated) | inactive: -10.7% |
| COc1ccc(OC)c(NC(=O)C2=C(C)C(=O)OC23CCCCCC3)c1 | inactive: 0.837% |
| CCN(CC)CCCNC(=O)c1cn(C)c2ccc(S(=O)(=O)N(C)C3CCCCC3)cc2c1=O | inactive: 2.7% |
| CCN(CC)CCCNC(=O)c1cnc(SC)nc1-c1ccccc1 | inactive: -0.378% |
| Cc1ccc(CN(C(=O)COc2ccc([N+](=O)[O-])cc2)c2ccccn2)cc1 | inactive: -3.14% |
| O=C(COc1ccc(Cl)cc1)Nc1nnc(S(=O)(=O)N2CCc3ccccc32)s1 | inactive: 20.2% |
| COc1cccc(-c2ncnn2-c2sc3c(c2C#N)CCCCC3)c1OC | inactive: 18.6% |
| CCN(C(=O)CSc1nc2ncccc2[nH]1)c1ccc(C(C)C)cc1 | inactive: 7.73% |
| Cc1ccc2c(=O)cc(C(=O)Nc3nc4ccc(Cl)cc4s3)oc2c1C | inactive: 3.7% |
| CCOCCc1nn2c(=O)cc(COC(=O)CNC(=O)c3cccc(C)c3)nc2s1 | inactive: 26.7% |
| Cc1nn(CC(=O)N2CCC(C)CC2)c(=O)c2cc3sccc3n12 | inactive: 3.86% |
| CCOc1ccc(CCNC(=O)c2cn(C)c3ccc(S(=O)(=O)N4CCCCCC4)cc3c2=O)cc1OCC | inactive: -9.09% |
| COc1ccc(CNc2nc3c(-c4cccc(C)c4)nnn3c3ccccc23)cc1 | inactive: -4.27% |
| CCOc1ccc(NC(=O)c2cnc(N3CCCC3)nc2C)cc1 | inactive: -2.59% |
| CC(C)c1ccc(NC(=O)Cn2cc(S(=O)(=O)N3CCN(c4ccccc4F)CC3)c3ccccc3c2=O)cc1 | inactive: -2.12% |
| CCOC(=O)c1c(C)[nH]c(C)c1S(=O)(=O)N(C)CC(=O)N1CCN(c2ccccc2)CC1 | inactive: 0% |
